Laboratory results reported in the supplement of paper PMC8728848.
Some of the results follow.

Legend:
Experiment in all cases: glycan array binding signal (z-score within array); higher = stronger binding
Settings in all cases: glycan notation: IUPAC condensed, linker removed
Gal(a1-2)Gal = target: Gal(a1-2)Gal
Procedure, shortened: (§1)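 Columns mapping to the same glycan were averaged after glycan names were converted to IUPAC-condensed notation. The data come from 3228 arrays in the Consortium for Functional Glycomics database, limited to those with an available protein sequence. Binding is reported as a within-array Z-score averaged across arrays of one protein sequence and across linkers.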

Gal(a1-3)Gal = target: Gal(a1-3)Gal
Procedure, shortened: as §1

Gal(a1-3)Gal(b1-3)GlcNAc = target: Gal(a1-3)Gal(b1-3)GlcNAc
Procedure, shortened: as §1

Gal(a1-3)Gal(b1-4)Glc = target: Gal(a1-3)Gal(b1-4)Glc
Procedure, shortened: as §1

Gal(a1-3)Gal(b1-4)GlcNAc = target: Gal(a1-3)Gal(b1-4)GlcNAc
Procedure, shortened: as §1

[1] = target: Gal(a1-3)Gal(b1-4)[Fuc(a1-3)]GlcNAc
Procedure, shortened: as §1

[2] = target: Gal(a1-3)Gal(b1-4)[Fuc(a1-3)]GlcNAc(b1-2)Man(a1-3)[Gal(a1-3)Gal(b1-4)[Fuc(a1-3)]GlcNAc(b1-2)Man(a1-6)]Man(b1-4)GlcNAc(b1-4)GlcNAc
Procedure, shortened: as §1

Gal(a1-3)GalNAc = target: Gal(a1-3)GalNAc
Procedure, shortened: as §1

[3] = target: Gal(a1-3)[Gal(a1-4)]Gal(b1-4)GlcNAc
Procedure, shortened: as §1

Gal(a1-4)Gal(b1-4)Glc = target: Gal(a1-4)Gal(b1-4)Glc
Procedure, shortened: as §1

Gal(a1-4)Gal(b1-4)GlcNAc = target: Gal(a1-4)Gal(b1-4)GlcNAc
Procedure, shortened: as §1

[4] = target: Gal(a1-4)Gal(b1-4)GlcNAc(b1-3)Gal(b1-4)Glc
Procedure, shortened: as §1

Gal(a1-4)GlcNAc = target: Gal(a1-4)GlcNAc
Procedure, shortened: as §1

Gal(a1-6)Glc = target: Gal(a1-6)Glc
Procedure, shortened: as §1

Gal(b1-2)Gal = target: Gal(b1-2)Gal
Procedure, shortened: as §1

Gal(b1-3)Gal = target: Gal(b1-3)Gal
Procedure, shortened: as §1

Gal(b1-3)Gal(b1-4)GlcNAc = target: Gal(b1-3)Gal(b1-4)GlcNAc
Procedure, shortened: as §1

[5] = target: Gal(b1-3)Gal(b1-4)GlcNAc(b1-2)Man(a1-3)[Gal(b1-3)Gal(b1-4)GlcNAc(b1-2)Man(a1-6)]Man(b1-4)GlcNAc(b1-4)GlcNAc
Procedure, shortened: as §1

Gal(b1-3)GalNAc = target: Gal(b1-3)GalNAc
Procedure, shortened: as §1

[6] = target: Gal(b1-3)GalNAc(a1-3)[Fuc(a1-2)]Gal(b1-4)Glc
Procedure, shortened: as §1

[7] = target: Gal(b1-3)GalNAc(a1-3)[Fuc(a1-2)]Gal(b1-4)GlcNAc
Procedure, shortened: as §1

[8] = target: Gal(b1-3)GalNAc(b1-3)Gal(a1-4)Gal(b1-4)Glc
Procedure, shortened: as §1

[9] = target: Gal(b1-3)GalNAc(b1-4)Gal(b1-4)Glc
Procedure, shortened: as §1

[10] = target: Gal(b1-3)GalNAc(b1-4)[Neu5Ac(a2-3)]Gal(b1-4)Glc
Procedure, shortened: as §1

Gal(b1-3)GlcNAc = target: Gal(b1-3)GlcNAc
Procedure, shortened: as §1

[11] = target: Gal(b1-3)GlcNAc(b1-2)Man(a1-3)[Gal(b1-3)GlcNAc(b1-2)Man(a1-6)]Man(b1-4)GlcNAc(b1-4)GlcNAc
Procedure, shortened: as §1

[12] = target: Gal(b1-3)GlcNAc(b1-2)Man(a1-3)[Gal(b1-3)GlcNAc(b1-2)Man(a1-6)]Man(b1-4)GlcNAc(b1-4)[Fuc(a1-6)]GlcNAc
Procedure, shortened: as §1

[13] = target: Gal(b1-3)GlcNAc(b1-3)Gal(b1-3)GlcNAc
Procedure, shortened: as §1

[14] = target: Gal(b1-3)GlcNAc(b1-3)Gal(b1-4)Glc
Procedure, shortened: as §1

[15] = target: Gal(b1-3)GlcNAc(b1-3)Gal(b1-4)GlcNAc
Procedure, shortened: as §1

B1: Eap (Staphylococcus aureus), A0A7L5PYT7 (protein)
chain: MKFKSLITTTLALGVLASTGANFNNNEAAAAAKPLDKSSSSLHHGYSKVHVPYAITVNGTSQNILSSLTFNKNQNISYKDLEDRVKSVLKSDRGISDIDLRLSKQAKYTVYFKNGTKKVIDLKAGIYTADLINTSEIKAININVDTKKQVEDKKKDKANYQVPYTITVNGTSQNILSNLTFNKNQNISYKDLEDKVKSVLESNRGITDVDLRLSKQAKYTVNFKNGTKKVIDLKSGIYTANLINSSDIKSININVDTKKHIENKAKRNYQVPYSINLNGTSTNILSNLSFSNKPWTNYKNLTSQIKSVLKHDRGISEQDLKYAKKAYYTVYFKNGGKRILQLNSKNYTANLVHAKDVKRIEITVKTGTKAKADRYVPYTIAVNGTSTPILSDLKFTGDPRVGYKDISKKVKSVLKHDRGIGERELKYAKKATYTVHFKNGTKKVININSNISQLNLLYVQDIKKIDIDVKTGTKAKADSYVPYTIAVNGTSTPILSKLKISNKQLISYKYLNDKVKSVLKSERGISDLDLKFAKQAKYTVYFKNGKKQVVNLKSDIFTPNLFSAKDIKKIDIDVKQYTKSKKNK
- glycan array binding signal (z-score) (Gal(a1-2)Gal): 0.159
- glycan array binding signal (z-score) (Gal(a1-3)Gal): 0.658
- glycan array binding signal (z-score) (Gal(a1-3)Gal(b1-3)GlcNAc): -0.194
- glycan array binding signal (z-score) (Gal(a1-3)Gal(b1-4)Glc): 0.101
- glycan array binding signal (z-score) (Gal(a1-3)Gal(b1-4)GlcNAc): -0.001
- glycan array binding signal (z-score) [1]: -0.392
- glycan array binding signal (z-score) [2]: -0.414
- glycan array binding signal (z-score) (Gal(a1-3)GalNAc): 0.156
- glycan array binding signal (z-score) [3]: -0.767
- glycan array binding signal (z-score) (Gal(a1-4)Gal(b1-4)Glc): -0.577
- glycan array binding signal (z-score) (Gal(a1-4)Gal(b1-4)GlcNAc): 0.283
- glycan array binding signal (z-score) [4]: -0.4
- glycan array binding signal (z-score) (Gal(a1-4)GlcNAc): 0.1
- glycan array binding signal (z-score) (Gal(a1-6)Glc): 0.133
- glycan array binding signal (z-score) (Gal(b1-2)Gal): -0.038
- glycan array binding signal (z-score) (Gal(b1-3)Gal): 0.512
- glycan array binding signal (z-score) (Gal(b1-3)Gal(b1-4)GlcNAc): 0.18
- glycan array binding signal (z-score) [5]: -0.547
- glycan array binding signal (z-score) (Gal(b1-3)GalNAc): -0.063
- glycan array binding signal (z-score) [6]: -0.374
- glycan array binding signal (z-score) [7]: -0.358
- glycan array binding signal (z-score) [8]: -0.22
- glycan array binding signal (z-score) [9]: -0.183
- glycan array binding signal (z-score) [10]: -0.709
- glycan array binding signal (z-score) (Gal(b1-3)GlcNAc): -0.449
- glycan array binding signal (z-score) [11]: -0.347
- glycan array binding signal (z-score) [12]: -0.453
- glycan array binding signal (z-score) [13]: -0.471
- glycan array binding signal (z-score) [14]: -0.383
- glycan array binding signal (z-score) [15]: -0.525
